56 sequences from the supplement of paper PMC11417369 can be followed below.

± gives the standard deviation of the averaged measurements. The list shows a part of the results.

This assay relates to PfAP2-G AP2 domain (GST-tagged). The assay is described as follows: gcPBM binding intensity (ln(normalized median fluorescence intensity)); higher = stronger DNA binding. Summed up:
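GST-tagged P. falciparum DNA-binding domains, expressed in E. coli (about 25 μg on average), were applied for 1 h to an Agilent 4 × 180k array of primer-extended double-stranded 36-bp intergenic genomic probes plus negative controls. The binding buffer was 1× PBS with 1% milk, 0.2 mg/ml BSA, 0.5% salmon testes DNA and 0.03% Triton X-100. Bound protein was detected with Alexa488 anti-GST antibody and scanned at 488 nm. Binding intensity is the highest Masliner-normalised natural-log median intensity across replicate spots of either probe orientation.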
Consider “ATTATATATAAGAAGAGTACTGAATATGTGCAATAT [XGTACX_site4471]”, for which the “gcPBM binding intensity (ln)” value came out at 11 ± 0.56.

Take “TTGAGGAAATAACAGTGTACAAACAAATTATTACCA [XGTACX_site7082]”: the “gcPBM binding intensity (ln)” value is 11.1 ± 0.57. For the sequence “TACATATATATATATATATATATATATATCATTATG [XGTACX_negctrl_site293]”, the “gcPBM binding intensity (ln)” value came to 9.79 ± 0.24. On to “TATAAAAAAAAAAAATATATATATATATAAATATAA [TGCATGCA_negctrl_site367]”, for which the “gcPBM binding intensity (ln)” value stood at 9.52 ± 0.11.

In the case of “TAAGAAAAAAAAAAAAAAAAAAAAAAAAAAAAAAAA [CACACA_negctrl_site760]”, the “gcPBM binding intensity (ln)” value stood at 9.71 ± 0.22. “TAAAAATATTTTCATTGTACATATATATAAATATAT [XGTACX_site1123]”: the “gcPBM binding intensity (ln)” value amounted to 10.9 ± 0.61. Consider “TCACCTATTTTTAACTGTACTGAAATGATATATATA [XGTACX_site1366]”, for which the “gcPBM binding intensity (ln)” value stood at 11.3 ± 0.98. In the case of “TAATGAAATTGTAGTAGTACCTTCTTATAAATAAAA [XGTACX_site6747]”, the “gcPBM binding intensity (ln)” value was 10.9 ± 0.6. “ATTTGTTACGGACATGCATGCGAATCAGGGTATATA [TGCATGCA_site154]”: the “gcPBM binding intensity (ln)” value is 10.9 ± 0.72.

For “CAAACCTATATACAAACATGCAATCCACATATTGGT [TGCATGCA_site756]”, the “gcPBM binding intensity (ln)” value came out at 9.99 ± 0.13. As to “TATATTTGTATTGTTTGTACTTATATGAATTTATAT [XGTACX_site4228]”, the “gcPBM binding intensity (ln)” value came out at 11.2 ± 0.73. As for “TATATTAGTGTTGACACACACAAAAAAAAAAAAAAA [CACACA_site1396]”, the figure is 10.3 ± 0.61; as for “ATGGTACATACATACACACACACAAAAAAAAAAAAA [CACACA_site1578]”, 10.7 ± 0.79; as for “GTTCAATTTTTAGGAAGTACAAAAAAAAAAAAGAAA [XGTACX_site7286]”, 11.3 ± 0.75. Turning to “TTTATTGACAATTTATGTACATATAATTGAAAAATA [XGTACX_site6634]”, the “gcPBM binding intensity (ln)” value was determined as 11.4 ± 0.73.

Regarding “TTTGTGATATTATATTGTACCCTATATTTATTATAA [XGTACX_site4240]”, the “gcPBM binding intensity (ln)” value amounted to 11.3 ± 0.87. The value for “GAATGGACGTTAGGGGGTACGTATAAAATTTATCAA [XGTACX_site683]” was 11.7 ± 0.81; that for “AATATATACAATATATGTACATATATATACACATAT [XGTACX_site4190]” was 11.3 ± 0.73; that for “CTTTTATTAAAATTCACACACATAAACTTTTATAAA [CACACA_site7027]” was 10.1 ± 0.23. With “CTTATATATATATCATGTACTTATGTATTTAAGAAT [XGTACX_site3307]”, the “gcPBM binding intensity (ln)” value was determined as 11.2 ± 0.69. For the sequence “ACAATAAAAATTTATGCATGTGAATTGAAAAAAAAA [TGCATGCA_site1037]”, the “gcPBM binding intensity (ln)” value came to 9.925 ± 0.064. Take “GGAATGTAGGGTTTTACCAAAATAAAAATAACCATA [XGTACX_negctrl_site492]”: the “gcPBM binding intensity (ln)” value is 10.1 ± 0.18.

With “TATATATTTCGGTGTGCACACTTTTTATTTTTATCC [CACACA_site1726]”, the “gcPBM binding intensity (ln)” value turned out to be 10.6 ± 0.18. For the sequence “TATATATATATATGTACACACATATATACCTTTCAT [CACACA_site2679]”, the “gcPBM binding intensity (ln)” value worked out at 11.4 ± 0.81. As to GTTATTGAAAAAATAGTGCAATATAACAAAGTAAAA, the “gcPBM binding intensity (ln)” value was 10.3 ± 0.2. Regarding “AAATAAAACAAACACACACACACATACACAAAAAAA [CACACA_site3849]”, the “gcPBM binding intensity (ln)” value is 10.2 ± 0.45. On to “ATAAAATACCTATAAACACACATATAAACAGACATA [CACACA_site7213]”, for which the “gcPBM binding intensity (ln)” value amounted to 10 ± 0.18.

Turning to “AGGAAAATACCTTAATGTACATAGAAAAGTAACATT [XGTACX_site8011]”, the “gcPBM binding intensity (ln)” value was 10.9 ± 0.57.

In the case of “TTTTTTATTATCAAAACATGCATTTTTTAAATGGAA [TGCATGCA_site557]”, the “gcPBM binding intensity (ln)” value came out at 9.82 ± 0.16. Take “TTGTACGCAAAAAAAAAAAAAAAAAAATTAAAATTT [TGCATGCA_negctrl_site586]”: the “gcPBM binding intensity (ln)” value is 11.5 ± 1.1. As for “TTTTTCTCTTTAAGGTGTACAATAATACAGTAACCA [XGTACX_site300]”, the “gcPBM binding intensity (ln)” value was found to be 11.4 ± 0.8. Take “ATATTAGTAACACAGACACACAAAAAAAAAAAAAAA [CACACA_site2176]”: the “gcPBM binding intensity (ln)” value was 10 ± 0.54. As for “CACTTAACACAAGAGTGTACACATATATATATATAT [XGTACX_site686]”, the figure is 11.6 ± 0.92; as for “ACAAATAAGTTTTGTAGTACTGTGTATATATATATA [XGTACX_site6901]”, 11.3 ± 0.89; as for “TTAAACCGTGGGAGCACACACACACCCCCACCCATA [CACACA_site331]”, 10.8 ± 0.52. For the sequence “TTAAGAAGTTCTAAATGTACATACATAACCACGTTA [XGTACX_site7514]”, the “gcPBM binding intensity (ln)” value was 10.9 ± 0.48. On to “ATAATATTTTCTTCTTATTGAATGCTTTAAATTTAC [CACACA_negctrl_site1273]”, for which the “gcPBM binding intensity (ln)” value came to 9.94 ± 0.11. For “GGGAAATATTGAAACACACACGAACGCACGTATTTC [CACACA_site6258]”, the “gcPBM binding intensity (ln)” value came to 10.3 ± 0.13.

“TATAAATATATATACACACACACATTAATACATATA [CACACA_site3488]”: the “gcPBM binding intensity (ln)” value was determined as 10.2 ± 0.18. On to “TAATGAAATATACAGAGTACATTCTGTATATAGGAT [XGTACX_site7691]”, for which the “gcPBM binding intensity (ln)” value turned out to be 11 ± 0.7. The value for “GCATAAGAAAATAATTGTACAATTTACATACATAAA [XGTACX_site8286]” was 10.9 ± 0.54; that for “TATATATGTATATATATAAATATATATATATATATA [TGCATGCA_negctrl_site605]” was 9.69 ± 0.76; that for “TACTCAAAAATTAATTAGCATAATATATATAAAAAT [GTGCAC_negctrl_site613]” was 9.57 ± 0.11.

With “ACCTATGTATATTATACACACTCCAAACTATTATTT [CACACA_site1817]”, the “gcPBM binding intensity (ln)” value was found to be 10.13 ± 0.035.

For the sequence “AAATAGTATATAATATGTACATACATAAAAATGTAT [XGTACX_site3524]”, the “gcPBM binding intensity (ln)” value is 11.2 ± 0.76. Take “CAACATTTGAGACACACACACATACAAACAAACAAA [CACACA_site7538]”: the “gcPBM binding intensity (ln)” value is 10.4 ± 0.31. With “TATCCTATAAATAATACATGCATATATATATATATT [TGCATGCA_site638]”, the “gcPBM binding intensity (ln)” value stood at 9.88 ± 0.17.

Regarding “ATCAAAAAAAAAAAATTTTTTTTTTTGTTTGTTTCC [CACACA_negctrl_site1042]”, the “gcPBM binding intensity (ln)” value was 9.61 ± 0.14. Regarding “AAAGGTAAGCAGAATAGTACAGAAGAAAAAATATTT [XGTACX_site2941]”, the “gcPBM binding intensity (ln)” value was found to be 11.3 ± 0.88. Take “TTTTGTTTGTTCGTGACTACATTATGTTGTAAATAC [CACACA_negctrl_site604]”: the “gcPBM binding intensity (ln)” value stood at 10.5 ± 0.28.

For “CCCTCTTCTCTCATATCACACATGTCATCCTTATCC [CACACA_site5078]”, the “gcPBM binding intensity (ln)” value came to 10.1 ± 0.15.

On to “AAGAAAATTAAATTAACACACATAAATATGTAAATA [CACACA_site6882]”, for which the “gcPBM binding intensity (ln)” value stood at 9.75 ± 0.071. As to “CCAATAATATATAGAAGTACAGAAAAAAAAAAAAAA [XGTACX_site2049]”, the “gcPBM binding intensity (ln)” value was 11.5 ± 1.1.

On to “TATCGACATTTCATTTGTACATATATACATATATTT [XGTACX_site3346]”, for which the “gcPBM binding intensity (ln)” value amounted to 10.6 ± 0.37. With “TATAAATATTTATAAACACACAAATATATATATTTA [CACACA_site27]”, the “gcPBM binding intensity (ln)” value came to 9.92 ± 0.042. Turning to “ATCAAAATGTTAAAGATACACACCTAACAAACACAA [CACACA_site955]”, the “gcPBM binding intensity (ln)” value worked out at 10.2 ± 0.22.
